Source: PubChem BioAssay AID686978 (National Center for Advancing Translational Sciences (NCATS), 2013)
Values joined by “and” are separate entries in the source; they are usually repeats but may differ in a detail not shown here. Equal values may be shown once. The campaign covered roughly 420,000 compounds. About 64,000 (15%) were called active. Inconclusive results, whose numbers are uncertain, are shown with a selection of clear calls. The call rests on the fitted dose curve; in most records, active means well fitted inhibition curve with a large enough effect; inconclusive means small, poorly fitted or top-dose-only effect; inactive means flat fitted curve, though single readings scatter. A potency beside an inconclusive call is a rough fit, not a confirmed value.

test: qHTS for Inhibitors of human tyrosyl-DNA phosphodiesterase 1 (TDP1): qHTS in cells in absence of CPT; conditions: DT40 Tdp1-/- hTDP1 cells, no CPT, ATP luminescence, 48 h; activity change, negative = growth inhibition: at 46.2 µM (top of the series) unless noted; further: nearly all actives have a fitted effect of over 55% in size
In short: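 Growth of hTDP1-complemented DT40 Tdp1-knockout cells is measured by ATP luminescence after at least 48 hr compound exposure at 37 °C, with DMSO substituting for the 20 nM CPT used in the parallel screen.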
On the % scale 0 is the no-effect control and ±100 the full control effect; potency means the concentration at half of the fitted maximal effect; tags describe the fitted curve by direction and shape.

Row | SMILES | Potency | activity change, negative = growth inhibition
1 | CC1=C(C(=O)OCC(C)C)C(c2ccc(Br)s2)NC(=O)N1 (stereo not drawn) | inconclusive: 16.4 µM [inhibitor, single point] | –
2 | COc1ccc(C(c2c(C)[nH]n(C(N)=S)c2=O)C(C#N)C#N)cc1 (stereo not drawn) | inconclusive: 16.4 µM [inhibitor, single point] | –
3 | CN(CC(=O)Nc1ccc(Cl)c(C(F)(F)F)c1)CC(=O)NC1CCCCC1 | inconclusive: 29.1 µM [inhibitor, single point] | –
4 | CC(=O)Nc1ccc(C(=O)N2CCCCC2c2cc(C(=O)Nc3cccc4c3CCCC4)no2)cc1 (stereo not drawn) | inconclusive: 29.1 µM [inhibitor, single point] | –
5 | CNc1nc(-c2c[nH]c3ccccc23)cs1 | inconclusive: 11.6 µM [inhibitor, partial curve, poor fit] | –
6 | COc1ccc(OC(C)C(=O)N2CCCc3ccccc32)cc1 (stereo not drawn) | inconclusive: 29.1 µM [inhibitor, single point] | –
7 | CCOC(=O)/C(C#N)=C1\C(=O)N(Cc2ccccc2)c2ccccc21 | active: 9.2 µM | –
8 | O=C(C=CC=Cc1ccccc1)c1ccc([N+](=O)[O-])cc1 | active: 20.6 µM | –
9 | COc1ccccc1N(CC(=O)N1CCCCC1C)S(=O)(=O)c1ccc(Cl)cc1 (stereo not drawn) | inconclusive: 18.4 µM [inhibitor, single point] | –
10 | CSC(C(=O)c1cc2ccccc2o1)c1ccccc1 (stereo not drawn) | inconclusive: 16.4 µM [inhibitor, single point] | –
11 | Cc1cc(Br)c(NC(=O)CN2C(=O)NC3(CCOc4ccccc43)C2=O)c(Br)c1 (stereo not drawn) | inconclusive: 29.1 µM [inhibitor, single point] | –
12 | COC(=O)c1cn(C(=O)c2ccc(OC)cc2)c2ccccc12 | active: 4.61 µM | –
13 | O=C(CN1CCN(S(=O)(=O)c2ccc(F)cc2)CC1)Nc1ccc(Cl)c(C(F)(F)F)c1 | active: 9.2 µM | –
14 | O=C(NCC1(N2CCOCC2)CCCCC1)c1cnn(-c2nccc(-c3cccs3)n2)c1C1CC1 | active: 20.6 µM | –
15 | CCCCCCCCN1C(=O)[C@H](CC(=O)NCc2ccc(OC)c(OC)c2)C[C@@]2(C(=O)OCC)CCC=C12 | active: 20.6 µM | –
16 | COc1cccc(CN(CC(=O)NCc2ccccc2)S(=O)(=O)CCl)c1 | inconclusive: 31.6 µM [inhibitor, single point] and inconclusive: 20.6 µM [inhibitor, single point] | –
17 | Cc1ccc(CNC(=O)c2c(-c3ccccc3)sc3ccccc23)o1 | active: 16.4 µM | –
18 | N#CC(=Cc1ccc(O)c(O)c1)C(=O)NCc1ccccc1 | inconclusive: 35.5 µM [inhibitor, single point] | –
19 | Cc1c(O)nc(SC2CC(=O)N(c3ccccc3)C2=O)[nH]c1=O (stereo not drawn) | – | inactive: -3.69%
20 | O=C(O)[C@@H]1[C@@H]2C[C@@H]2CN1c1ncccc1[N+](=O)[O-] | – | inactive: 3.69%
21 | Cc1[nH]c2c(F)cccc2c1CC(=O)NCCN1Cc2ccccc2OC(C)C1 (stereo not drawn) | – | inactive: -9.42%
22 | COc1ccc(-c2cn[nH]c2N)cc1OC | – | inactive: -2.99%
23 | Cc1cc(C)c(CN2C(=O)c3ccccc3S(=O)(=O)c3ccc(C(=O)OCC4CCCO4)cc32)c(C)c1 (stereo not drawn) | inconclusive: 29.1 µM [inhibitor, single point] | –

Row | SMILES | Potency | activity change, negative = growth inhibition
24 | Cc1ccc(-n2ncc3c(=O)n(Cc4ccccc4C)cnc32)cc1C | inconclusive: 29.1 µM [inhibitor, single point] | –
25 | CCS(=O)(=O)c1ncc(Cl)c(C(=O)N(Cc2ccccc2)c2ccc(OC)cc2)n1 | active: 0.651 µM | –
26 | CCCN(CC(=O)Nc1ccccc1C)C(=O)c1sc2ccccc2c1Cl | inconclusive: 10.3 µM [inhibitor, partial curve, poor fit] | –
27 | COc1ccc(CCNC(=O)c2noc(C)c2[N+](=O)[O-])cc1OC | – | inactive: -10.4%
28 | CC(=O)C1=CCC(c2ccc(C(C)C)cc2)N(S(=O)(=O)c2ccc(C)cc2)C1 (stereo not drawn) | inconclusive: 20.6 µM [inhibitor, single point] | –
29 | O=C(CCC1CCN(Cc2nccs2)CC1)Nc1ccccc1 | inconclusive: 29.1 µM [inhibitor, single point] | –
30 | COc1ccc(OC)c(Nc2c3c(nc4ccccc24)CCC3)c1 | active: 920 nM and active: 580 nM | –
31 | COc1ccc(N2CCN(S(=O)(=O)CCNC(=O)/C=C/c3ccc4c(c3)OCO4)CC2)cc1 | inconclusive: 10.3 µM [inhibitor, partial curve] | –
32 | CCCN(Cc1cccs1)C(=O)Nc1ccc(F)c(Cl)c1 | inconclusive: 20.6 µM [inhibitor, single point] | –
33 | Cc1cc(C)c2nc(SCC(=O)N(C)C3CCS(=O)(=O)C3)cc(C)c2c1 (stereo not drawn) | inconclusive: 25.9 µM [inhibitor, single point] | –
34 | COc1ccc(CCN2C(=O)C3C(C2=O)C2C=CC3C23CC3)cc1OC (stereo not drawn) | – | inactive: -6.31%
35 | CCCCc1ccc(NC(=O)Nc2cnccn2)cc1 | active: 23.1 µM | –
36 | O=C1c2ccc([N+](=O)[O-])cc2C(=O)N1Cc1cccnc1 | – | inactive: 14.1%
37 | CC(/C=C/c1ccccc1)=N\NC(=O)CCc1ccccc1 | – | inactive: -1.83%
38 | O=C(CN1C(=O)S/C(=C\c2ccccc2Cl)C1=O)NCCCn1ccnc1 | inconclusive: 11.6 µM [inhibitor, single point] | –
39 | O=C(N/N=C/c1cccc2nccnc12)c1ccncc1 | inconclusive: 29.1 µM [inhibitor, single point] | –
40 | COc1ccc(-c2[nH]c(-c3ccc4c(c3)OCO4)nc2-c2ccccc2)cc1 | inconclusive: 29.1 µM [inhibitor, single point] | –
41 | CCOC(=O)Cc1ccc(Nc2nc3cc(-c4ccccc4C)sc3c(=O)n2C)cc1 | inconclusive: 29.1 µM [inhibitor, single point] | –
42 | CCCN(CC(=O)Nc1ccccc1C)C(=O)c1cc2ccccc2oc1=O | – | inactive: 0.33%
43 | Cc1ccc(C(=O)OCC(=O)Nc2ccccc2Cl)c(O)c1 | inconclusive: 14.6 µM [inhibitor, partial curve, poor fit] | –
44 | Cc1ccc(CN2C(=O)C(CC(C)C)Nc3ncnc(N4CCCCC4)c32)cc1 (stereo not drawn) | inconclusive: 29.1 µM [inhibitor, single point] | –
45 | COc1cccc(Nc2sc(C(=O)c3ccc(Cl)cc3)c(N)c2C(=O)NCCc2ccc(OC)c(OC)c2)c1 | inconclusive: 20.6 µM [inhibitor, single point] | –
46 | N#C/C(=C\c1ccccc1)C(=O)NCc1ccc(F)cc1 | inconclusive: 14.6 µM [inhibitor, single point] | –

Row | SMILES | Potency | activity change, negative = growth inhibition
47 | O=C1c2ccccc2C(=O)N1c1ccccc1S(=O)C(F)(F)F (stereo not drawn) | – | inactive: 5.16%
48 | CS(=O)(=O)N1CCc2cc(C(=O)Nc3ccc(S(N)(=O)=O)cc3)ccc21 | – | inactive: -18.1%
49 | COc1ccc(CN2CCN(C(=O)c3ccc(S(=O)(=O)NCc4ccco4)cc3)CC2)cc1F | inconclusive: 16.4 µM [inhibitor, partial curve, poor fit] | –
50 | O=C(CSc1ccccn1)N/N=C/c1c[nH]c2ccccc12 | inconclusive: 16.4 µM [inhibitor, single point] | –
51 | COc1ccc2c(c1)OC[C@H]1[C@H]2N2C(=O)c3cc(Cl)ccc3NC(=O)[C@@]2(C)[C@H]1c1ccccc1 | inconclusive: 29.1 µM [inhibitor, single point] | –
52 | c1ccc(NC2=NCCN2CC2CCCCCC2)cc1 | inconclusive: 29.1 µM [inhibitor, single point] | –
53 | CCOC(=O)N1CCC(NC(=O)c2ccc(CS(=O)c3cccc(C)c3)o2)CC1 (stereo not drawn) | – | inactive: -5.5%
54 | OCCCNc1ccccc1 | – | inactive: -21.5%
55 | CCOC(=O)C1(Cc2ccccc2C#N)CCCCC1=O (stereo not drawn) | inconclusive: 18.4 µM [inhibitor, partial curve] | –
56 | O=C(C1CCN(S(=O)(=O)c2cccs2)CC1)N1CCN(Cc2ccccc2)CC1 | inconclusive: 29.1 µM [inhibitor, partial curve, poor fit] | –
57 | C=CCN1C(=O)/C(=C2/Sc3ccc(OC)cc3N2C)SC1=Nc1ccccc1 | inconclusive: 20.6 µM [inhibitor, partial curve] | –
58 | CC(=O)c1ccc2c(c1)N(CCCN1CCC(CCO)CC1)c1ccccc1S2 | inconclusive: 14.3 µM [inhibitor, single point] | –
59 | O=C(NC(=S)Nc1ccc2oc(=O)ccc2c1)c1cc2ccccc2o1 | – | inactive: -21.5%
60 | COc1ccc2c(C)cc(SCC(=O)Nc3cc(C(N)=O)cc(C(N)=O)c3)nc2c1 | inconclusive: 16.4 µM [inhibitor, single point] | –
61 | O=c1[nH]c(/C=C/c2cccc3ccccc23)nc2ccccc12 | inconclusive: 32.6 µM [inhibitor, single point] | –
62 | CC[C@]12c3[nH]c4cc(-c5ccco5)ccc4c3CCN1C(=O)[C@@H](CC(=O)NCc1cccc(C(F)(F)F)c1)C[C@@H]2C(=O)N1CCN(C(=O)C2CC2)CC1 | inconclusive: 23.1 µM [inhibitor, single point] | –
63 | CCCn1c(NC(=O)C23CC4CC(CC(O)(C4)C2)C3)nc2ccccc21 | inconclusive: 29.1 µM [inhibitor, single point] | –
64 | O=C(COC(=O)C1CCN(/C=C/C(=O)C(F)(F)F)CC1)Nc1cccc(F)c1 | – | inactive: -22.5%
65 | Cn1c(Oc2ccccc2)nc2c1c(=O)n(Cc1ccc(Cl)cc1Cl)c(=O)n2C | active: 16.4 µM | –
66 | CC(C)(C)OC(=O)N1CCC(c2c(C(=O)N3CCCCC3)cnn2-c2ccc(F)cc2F)CC1 | inconclusive: 29.1 µM [inhibitor, single point] | –
67 | COc1ccc(NC(=O)CSc2nc3nc(-c4cccs4)cc(C(F)(F)F)c3c(=O)[nH]2)c(OC)c1 | – | inconclusive: -31.4% [inhibitor]
68 | COC(=O)Cc1cc(=O)oc2c(C)c(O)ccc12 | inconclusive: 14.6 µM [inhibitor, partial curve, poor fit] | –
